From paper PMC6212790
The other results are listed elsewhere or left out. At the low end of the ranking the order means little.

The sequences below were run against T1, GST-Rok-C97-191 (UniProt O34857) (assay: protein binding microarray). Settings: Rok is a gene silencer of Bacillus subtilis; high values mean tight binding; most listed sequences are background and not binding sites; double strand, one strand shown.
T1 sequence: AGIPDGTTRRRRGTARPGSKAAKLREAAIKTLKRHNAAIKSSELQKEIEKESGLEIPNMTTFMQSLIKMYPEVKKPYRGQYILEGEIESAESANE
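Further: rank score from −0.5 (least bound) to 0.5 (best bound).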

| Sequence | binding signal |
| --- | --- |
| CGTAGTCC | -0.166 E-score |
| ATGTGAGC | -0.062 E-score |
| CTACACGC | 0.123 E-score |
| ACGCATCT | 0.0269 E-score |
| ATCTATCG | 0.313 E-score |
| GGATCCAA | -0.0216 E-score |
| GGCCGCTA | -0.0135 E-score |
| AGCCACCG | -0.102 E-score |
| CTATCACA | 0.255 E-score |
| GAAGGCCA | -0.32 E-score |
| CAGCTAGA | 0.124 E-score |
| GTCCTTGA | -0.241 E-score |
| ATCAAACC | -0.141 E-score |
| ACATCAGG | 0.0495 E-score |
| CACTAGAA | 0.304 E-score |
| AATACAAG | 0.245 E-score |
| ATGAGAAG | 0.175 E-score |
| AAGCTTCA | -0.115 E-score |
| AAATGTTC | 0.16 E-score |
| ATTTCAAA | 0.142 E-score |
| TACTTCCA | 0.0578 E-score |
| CACGTGAG | -0.0703 E-score |
| CTGCCGGA | -0.145 E-score |
| CTTACTAC | 0.171 E-score |
| ACTCTAGC | 0.015 E-score |

| Sequence | binding signal |
| --- | --- |
| ATGTTTAC | 0.00161 E-score |
| ATCCATAA | 0.0949 E-score |
| GACAGACC | -0.153 E-score |
| GTCCGACA | 0.0838 E-score |
| CGAATGAC | 0.0266 E-score |
| AACCTCGC | -0.129 E-score |
| GGGTATTA | 0.135 E-score |
| CGGGTGCA | -0.0722 E-score |
| TGGTTGAA | -0.121 E-score |
| CTGTCCTC | -0.0912 E-score |
| CTTGGTAA | 0.114 E-score |
| ATTTCGGA | 0.163 E-score |
| ACTCCAAA | -0.0283 E-score |
| AAAATAAG | 0.163 E-score |
| AGTGTTAG | 0.034 E-score |
| AGTGCTTA | 0.0679 E-score |
| CTGTTTAC | -0.0532 E-score |
| AGACGCGG | -0.2 E-score |
| TATTAGCA | 0.168 E-score |
| ATACGGGC | -0.0493 E-score |
| ATCCCCGG | -0.163 E-score |
| AAAAACTT | -0.191 E-score |
| AGCTGTGA | 0.179 E-score |
| ATGTTTCA | 0.137 E-score |
| ATCGGAAT | 0.0863 E-score |

| Sequence | binding signal |
| --- | --- |
| AATCATTC | 0.0486 E-score |
| ATAGGATA | 0.126 E-score |
| ACCATAGG | 0.13 E-score |
| AAAACTAG | 0.364 E-score |
| TTCCGAAA | 0.0206 E-score |
| CTCGACTC | 0.0309 E-score |
| AGTATGGC | 0.0943 E-score |
| ATCATATA | 0.288 E-score |
| CGCCCTTA | -0.0937 E-score |
| CAAATCGG | -0.0325 E-score |
| AAGACACA | -0.0287 E-score |
| GGGTGCCA | -0.182 E-score |
| CTATTTCC | 0.157 E-score |
| GAAGTCTC | -0.249 E-score |
| CGTGCATC | -0.163 E-score |
| CGGCCCCC | -0.402 E-score |
| CTTAGGAA | 0.0107 E-score |
| AATGAACT | -0.135 E-score |
| AGGCTCAC | -0.169 E-score |
| ATCCGACG | -0.0245 E-score |
| AGAATTGC | 0.124 E-score |
| GATAGGGC | -0.00393 E-score |
| ACCGGTGG | -0.0505 E-score |
| GGTAGTGA | 0.144 E-score |
| ATGACGGC | -0.0573 E-score |

| Sequence | binding signal |
| --- | --- |
| CTGTGCCA | -0.186 E-score |
| CCAAGAGA | -0.11 E-score |
| CTGGGTTA | -0.107 E-score |
| ACGCTTAC | -0.0511 E-score |
| GGCAAGTA | 0.0714 E-score |
| CTTCCTGA | -0.00749 E-score |
| GGGTACCC | -0.389 E-score |
| GTGTGGTA | 0.242 E-score |
| GTGTCACA | 0.0159 E-score |
| AGAGCGAG | 0.0284 E-score |
| ACGGAACC | -0.0209 E-score |
| ATCCTACA | 0.058 E-score |
| GACGTAAA | 0.0266 E-score |
| AAGCTGTA | -0.0302 E-score |
| AATGGATG | 0.158 E-score |
| CGCATCGA | -0.0153 E-score |
| CATCACAA | 0.149 E-score |
| AGGTGTGA | -0.101 E-score |
| CTCAGACC | -0.229 E-score |
| CGCTCTGA | -0.0645 E-score |
| GAGACATA | 0.0654 E-score |
| GATTTACC | 0.187 E-score |
| ATCGTGGC | -0.0133 E-score |
| TACAGGGA | -0.081 E-score |
| CAACGTCA | -0.073 E-score |

| Sequence | binding signal |
| --- | --- |
| ATGTGCGA | -0.123 E-score |
| CCCGCAAA | -0.076 E-score |
| CGGCTATA | 0.0143 E-score |
| CCATATGG | -0.0199 E-score |
| AGGCAACT | 0.0567 E-score |
| GGAAGGAA | -0.332 E-score |
| GCCTCCGC | -0.236 E-score |
| TATCGATA | 0.303 E-score |
| AGCTAGCA | 0.176 E-score |
| ACAGTCCG | -0.132 E-score |
| ACCAGGAT | -0.0854 E-score |
| CACTCACC | 0.0162 E-score |
| TATTTTGA | 0.257 E-score |
| ATCGGACA | 0.109 E-score |
| CGGGTTCA | -0.177 E-score |
| AGCAAGGG | -0.251 E-score |
| CTAGTACA | 0.265 E-score |
| GACACGGC | -0.198 E-score |
| ACCGGCCA | -0.162 E-score |
| CGAGTAGC | -0.0476 E-score |
| CTCGGGTC | -0.157 E-score |
| TAGGTCCA | 0.013 E-score |
| TGTCCTAA | -0.0439 E-score |
| AGTAATGC | 0.0683 E-score |
| AGCAACCG | -0.275 E-score |

| Sequence | binding signal |
| --- | --- |
| CTCCGATC | 0.0487 E-score |
| CTCTAATA | 0.0815 E-score |
| GGCAAGGA | -0.176 E-score |
| CCATCAAC | -0.105 E-score |
| AGATTCAC | 0.181 E-score |
| CCCCTGGA | -0.287 E-score |
| CACCATGA | -0.191 E-score |
| ATCCCATA | 0.101 E-score |
| GAGATGAA | -0.0161 E-score |
| AAAGCGCG | -0.142 E-score |
| ACGGGAAT | 0.0186 E-score |
| ATCCCTAC | 0.152 E-score |
| AACGTCAA | -0.0249 E-score |
| GTTTGAAA | -0.0461 E-score |
| GCCGTTGA | -0.2 E-score |
| GTGTTGCA | 0.0799 E-score |
| GGGCTGAA | -0.23 E-score |
| AGTTAGAT | 0.196 E-score |
| CCCTTCGC | -0.198 E-score |
| AAATCGCA | 0.0229 E-score |
| CTGAACTC | 0.0121 E-score |
| ATGTGTAC | 0.15 E-score |
| AAAAGAAA | -0.0747 E-score |
| GGAGCTAC | 0.0767 E-score |
| ACGCCGAA | -0.188 E-score |

| Sequence | binding signal |
| --- | --- |
| GCAAAGTA | 0.115 E-score |
| AGGGCAGG | -0.171 E-score |
| CGTGTGAA | -0.175 E-score |
| CGTAATCA | -0.102 E-score |
| CGCGCTTA | 0.0614 E-score |
| AGATAGGA | 0.133 E-score |
| CGGAACGA | 0.123 E-score |
| CTAGTGTA | 0.178 E-score |
| GTAGTGGA | 0.179 E-score |
| CAGTCTGC | -0.201 E-score |
| ATAGGAGA | 0.127 E-score |
| GCCCTCCA | -0.429 E-score |
| CTACTCAC | 0.103 E-score |
| GAGTGGAC | -0.0716 E-score |
| GGTTGGTA | 0.0918 E-score |
| AGGGGTGG | -0.192 E-score |
| TAGACGCA | -0.0795 E-score |
| ACGCTCCC | -0.211 E-score |
| ATCGTGTC | 0.0198 E-score |
| TAGGAGGA | -0.0185 E-score |
| AACCACTC | -0.0933 E-score |
| AAAACATG | -0.0172 E-score |
